# This is one part of the list.
# How the values were obtained:
# Assay in all cases: glycan array binding signal (z-score within array); higher = stronger binding
# Settings in all cases: glycan notation: IUPAC condensed, linker removed
# Fuc(a1-2)Gal = biological target: Fuc(a1-2)Gal
# In short: (§1)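 The binding signal is a Z-score computed within each array and averaged over linkers. Arrays of the same protein sequence at different concentrations or buffers were also averaged together. Data originate from 3228 arrays in the Consortium for Functional Glycomics database, kept only where the protein sequence was available.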
# Fuc(a1-2)Gal(b1-3)GalNAc = biological target: Fuc(a1-2)Gal(b1-3)GalNAc
# In short: as §1
# [1] = biological target: Fuc(a1-2)Gal(b1-3)GalNAc(b1-3)Gal
# In short: as §1
# [2] = biological target: Fuc(a1-2)Gal(b1-3)GalNAc(b1-3)Gal(a1-4)Gal(b1-4)Glc
# In short: as §1
# [3] = biological target: Fuc(a1-2)Gal(b1-3)GalNAc(b1-4)[Neu5Ac(a2-3)]Gal(b1-4)Glc
# In short: as §1
# Fuc(a1-2)Gal(b1-3)GlcNAc = biological target: Fuc(a1-2)Gal(b1-3)GlcNAc
# In short: as §1
# [4] = biological target: Fuc(a1-2)Gal(b1-3)GlcNAc(b1-3)Gal(b1-4)Glc
# In short: as §1
# [5] = biological target: Fuc(a1-2)Gal(b1-3)[Fuc(a1-4)]GlcNAc
# In short: as §1
# Fuc(a1-2)Gal(b1-4)Glc = biological target: Fuc(a1-2)Gal(b1-4)Glc
# In short: as §1
# Fuc(a1-2)Gal(b1-4)GlcNAc = biological target: Fuc(a1-2)Gal(b1-4)GlcNAc
# In short: as §1
# [6] = biological target: Fuc(a1-2)Gal(b1-4)GlcNAc(b1-3)Gal(b1-4)GlcNAc
# In short: as §1
# [7] = biological target: Fuc(a1-2)Gal(b1-4)GlcNAc(b1-3)Gal(b1-4)GlcNAc(b1-3)Gal(b1-4)GlcNAc
# In short: as §1
# [8] = biological target: Fuc(a1-2)Gal(b1-4)[Fuc(a1-3)]GlcNAc
# In short: as §1
# [9] = biological target: Fuc(a1-2)Gal(b1-4)[Fuc(a1-3)]GlcNAc(b1-3)Gal(b1-4)[Fuc(a1-3)]GlcNAc
# In short: as §1
# [10] = biological target: Fuc(a1-2)Gal(b1-4)[Fuc(a1-3)]GlcNAc(b1-3)Gal(b1-4)[Fuc(a1-3)]GlcNAc(b1-3)Gal(b1-4)[Fuc(a1-3)]GlcNAc
# In short: as §1
# Fuc(a1-2)GlcNAc = biological target: Fuc(a1-2)GlcNAc
# In short: as §1
# Fuc(a1-2)[Gal(a1-3)]Gal = biological target: Fuc(a1-2)[Gal(a1-3)]Gal
# In short: as §1
# [11] = biological target: Fuc(a1-2)[Gal(a1-3)]Gal(b1-3)GlcNAc
# In short: as §1
# [12] = biological target: Fuc(a1-2)[Gal(a1-3)]Gal(b1-4)Glc
# In short: as §1
# [13] = biological target: Fuc(a1-2)[Gal(a1-3)]Gal(b1-4)GlcNAc
# In short: as §1
# [14] = biological target: Fuc(a1-2)[Gal(a1-3)]Gal(b1-4)[Fuc(a1-3)]GlcNAc
# In short: as §1
# [15] = biological target: Fuc(a1-2)[Gal(a1-4)]Gal(b1-4)GlcNAc
# In short: as §1
# [16] = biological target: Fuc(a1-2)[GalNAc(a1-3)]Gal
# In short: as §1
# [17] = biological target: Fuc(a1-2)[GalNAc(a1-3)]Gal(b1-3)GlcNAc
# In short: as §1
# [18] = biological target: Fuc(a1-2)[GalNAc(a1-3)]Gal(b1-4)Glc
# In short: as §1
# [19] = biological target: Fuc(a1-2)[GalNAc(a1-3)]Gal(b1-4)GlcNAc
# In short: as §1
# [20] = biological target: Fuc(a1-2)[GalNAc(a1-3)]Gal(b1-4)[Fuc(a1-3)]GlcNAc
# In short: as §1
# [21] = biological target: Fuc(a1-2)[GalNAc(a1-4)]Gal(b1-4)GlcNAc
# In short: as §1
# [22] = biological target: Fuc(a1-2)[GalNAc(b1-3)]Gal
# In short: as §1
# Fuc(a1-3)GlcNAc = biological target: Fuc(a1-3)GlcNAc
# In short: as §1
# [23] = biological target: Fuc(a1-3)[Gal(b1-4)]GlcNAc
# In short: as §1
# [24] = biological target: Fuc(a1-3)[Gal(b1-4)]GlcNAc(b1-4)Gal(b1-4)[Fuc(a1-3)]GlcNAc
# In short: as §1
# [25] = biological target: Fuc(a1-3)[Gal(b1-4)]GlcNAc(b1-4)Gal(b1-4)[Fuc(a1-3)]GlcNAc(b1-4)Gal(b1-4)[Fuc(a1-3)]GlcNAc
# In short: as §1
# [26] = biological target: Fuc(a1-3)[Gal3S(b1-4)]GlcNAc
# In short: as §1
# [27] = biological target: Fuc(a1-3)[GalNAc(b1-4)]GlcNAc
# In short: as §1
# Fuc(a1-4)GlcNAc = biological target: Fuc(a1-4)GlcNAc
# In short: as §1
# Fuc(b1-3)GlcNAc = biological target: Fuc(b1-3)GlcNAc
# In short: as §1
# Gal(a1-2)Gal = biological target: Gal(a1-2)Gal
# In short: as §1
# Gal(a1-3)Gal = biological target: Gal(a1-3)Gal
# In short: as §1
# Gal(a1-3)Gal(b1-3)GlcNAc = biological target: Gal(a1-3)Gal(b1-3)GlcNAc
# In short: as §1
# Gal(a1-3)Gal(b1-4)Glc = biological target: Gal(a1-3)Gal(b1-4)Glc
# In short: as §1
# Gal(a1-3)Gal(b1-4)GlcNAc = biological target: Gal(a1-3)Gal(b1-4)GlcNAc
# In short: as §1
# [28] = biological target: Gal(a1-3)Gal(b1-4)[Fuc(a1-3)]GlcNAc
# In short: as §1
# Gal(a1-3)GalNAc = biological target: Gal(a1-3)GalNAc
# In short: as §1
# [29] = biological target: Gal(a1-3)[Gal(a1-4)]Gal(b1-4)GlcNAc
# In short: as §1
# Gal(a1-4)Gal(b1-4)Glc = biological target: Gal(a1-4)Gal(b1-4)Glc
# In short: as §1
# Gal(a1-4)Gal(b1-4)GlcNAc = biological target: Gal(a1-4)Gal(b1-4)GlcNAc
# In short: as §1
# Gal(a1-4)GlcNAc = biological target: Gal(a1-4)GlcNAc
# In short: as §1
# Gal(a1-6)Glc = biological target: Gal(a1-6)Glc
# In short: as §1
# Gal(b1-2)Gal = biological target: Gal(b1-2)Gal
# In short: as §1
# Gal(b1-3)Gal = biological target: Gal(b1-3)Gal
# In short: as §1
# Gal(b1-3)GalNAc = biological target: Gal(b1-3)GalNAc
# In short: as §1
# [30] = biological target: Gal(b1-3)GalNAc(b1-3)Gal(a1-4)Gal(b1-4)Glc
# In short: as §1
# [31] = biological target: Gal(b1-3)GalNAc(b1-4)Gal(b1-4)Glc
# In short: as §1
# [32] = biological target: Gal(b1-3)GalNAc(b1-4)[Neu5Ac(a2-3)]Gal(b1-4)Glc
# In short: as §1
# Gal(b1-3)GlcNAc = biological target: Gal(b1-3)GlcNAc
# In short: as §1
# [33] = biological target: Gal(b1-3)GlcNAc(b1-3)Gal(b1-4)Glc
# In short: as §1
# [34] = biological target: Gal(b1-3)GlcNAc(b1-3)Gal(b1-4)GlcNAc
# In short: as §1
# [35] = biological target: Gal(b1-3)[Fuc(a1-4)]GlcNAc
# In short: as §1
# [36] = biological target: Gal(b1-3)[Fuc(a1-4)]GlcNAc(b1-3)Gal(b1-4)GlcNAc
# In short: as §1
binder,measurement,setting,value
"CLEC-6 (Homo sapiens), Q8WXI8 (protein) MGLEKPQSKLEGGMHPQLIPSVIAVVFILLLSVCFIASCLVTHHNFSRCKRGTGVHKLEHHAKLKCIKEKSELKSAEGSTWNCCPIDWRAFQSNCYFPLTDNKTWAESERNCSGMGAHLMTISTEAEQNFIIQFLDRRLSYFLGLRDENAKGQWRWVDQTPFNPRRVFWHKNEPDNSQGENCVVLVYNQDKWAWNDVPCNFEASRICKIPGTTLN",glycan array binding signal (z-score),Fuc(a1-2)Gal,-0.369
same,glycan array binding signal (z-score),Fuc(a1-2)Gal(b1-3)GalNAc,-0.174
same,glycan array binding signal (z-score),[1],6.22
same,glycan array binding signal (z-score),[2],-0.189
same,glycan array binding signal (z-score),[3],0.308
same,glycan array binding signal (z-score),Fuc(a1-2)Gal(b1-3)GlcNAc,-0.196
same,glycan array binding signal (z-score),[4],-0.203
same,glycan array binding signal (z-score),[5],-0.052
same,glycan array binding signal (z-score),Fuc(a1-2)Gal(b1-4)Glc,-0.054
same,glycan array binding signal (z-score),Fuc(a1-2)Gal(b1-4)GlcNAc,-0.048
same,glycan array binding signal (z-score),[6],-0.176
same,glycan array binding signal (z-score),[7],-0.295
same,glycan array binding signal (z-score),[8],-0.16
same,glycan array binding signal (z-score),[9],-0.303
same,glycan array binding signal (z-score),[10],0.12
same,glycan array binding signal (z-score),Fuc(a1-2)GlcNAc,0.059
same,glycan array binding signal (z-score),Fuc(a1-2)[Gal(a1-3)]Gal,-0.319
same,glycan array binding signal (z-score),[11],-0.255
same,glycan array binding signal (z-score),[12],-0.282
same,glycan array binding signal (z-score),[13],-0.117
same,glycan array binding signal (z-score),[14],-0.276
same,glycan array binding signal (z-score),[15],-0.193
same,glycan array binding signal (z-score),[16],0.26
same,glycan array binding signal (z-score),[17],-0.119
same,glycan array binding signal (z-score),[18],-0.052
same,glycan array binding signal (z-score),[19],-0.239
same,glycan array binding signal (z-score),[20],-0.102
same,glycan array binding signal (z-score),[21],0.035
same,glycan array binding signal (z-score),[22],-0.091
same,glycan array binding signal (z-score),Fuc(a1-3)GlcNAc,-0.325
same,glycan array binding signal (z-score),[23],-0.217
same,glycan array binding signal (z-score),[24],-0.06
same,glycan array binding signal (z-score),[25],-0.329
same,glycan array binding signal (z-score),[26],-0.221
same,glycan array binding signal (z-score),[27],-0.053
same,glycan array binding signal (z-score),Fuc(a1-4)GlcNAc,-0.155
same,glycan array binding signal (z-score),Fuc(b1-3)GlcNAc,-0.296
same,glycan array binding signal (z-score),Gal(a1-2)Gal,-0.304
same,glycan array binding signal (z-score),Gal(a1-3)Gal,-0.093
same,glycan array binding signal (z-score),Gal(a1-3)Gal(b1-3)GlcNAc,-0.286
same,glycan array binding signal (z-score),Gal(a1-3)Gal(b1-4)Glc,-0.283
same,glycan array binding signal (z-score),Gal(a1-3)Gal(b1-4)GlcNAc,-0.191
same,glycan array binding signal (z-score),[28],-0.267
same,glycan array binding signal (z-score),Gal(a1-3)GalNAc,-0.047
same,glycan array binding signal (z-score),[29],-0.268
same,glycan array binding signal (z-score),Gal(a1-4)Gal(b1-4)Glc,-0.259
same,glycan array binding signal (z-score),Gal(a1-4)Gal(b1-4)GlcNAc,0.172
same,glycan array binding signal (z-score),Gal(a1-4)GlcNAc,-0.055
same,glycan array binding signal (z-score),Gal(a1-6)Glc,-0.006
same,glycan array binding signal (z-score),Gal(b1-2)Gal,-0.038
same,glycan array binding signal (z-score),Gal(b1-3)Gal,-0.161
same,glycan array binding signal (z-score),Gal(b1-3)GalNAc,-0.284
same,glycan array binding signal (z-score),[30],-0.16
same,glycan array binding signal (z-score),[31],-0.328
same,glycan array binding signal (z-score),[32],-0.32
same,glycan array binding signal (z-score),Gal(b1-3)GlcNAc,-0.026
same,glycan array binding signal (z-score),[33],-0.289
same,glycan array binding signal (z-score),[34],-0.45
same,glycan array binding signal (z-score),[35],-0.206
same,glycan array binding signal (z-score),[36],-0.269

# Source: the supplement of paper PMC8728848
